Measurements published in PubChem BioAssay AID1963576 (National Center for Advancing Translational Sciences (NCATS), 2024).
The campaign covered roughly 46,000 compounds. About 60 (0.1%) were called active. About 3% were inconclusive and are not listed. The call rests on the fitted dose curve; in most records, active means well fitted inhibition curve with a large enough effect; inconclusive means small, poorly fitted or top-dose-only effect; inactive means no such curve, though single readings can be large or run the other way. Some of the results follow.

Test: Primary qHTS assay for Inhibitors of ovarian cancer metastasis using an organotypic tumor microenvironment (TME) model. Further: nearly all actives have a fitted effect of over 65% in size.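 On activity change, negative = inhibition: plate controls were DMSO wells for no effect and tomatine positive control wells for full effect.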
Conditions: SKOV3ip1-GFP adhesion/invasion on 3D omental model, fluorescence; series mostly up to 45.8 µM; activity change, negative = inhibition: at the top concentration
How it was run: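 A 3D layer of primary human omental fibroblasts, mesothelial cells, fibronectin and collagen I, grown 48 hr, received SKOV3ip1-GFP cells in serum-free medium plus compounds at 0.36-46 umol/L. After 2 hr RT and 16 hr 37 C, fixed adherent GFP cells were counted; normalized to DMSO and tomatine.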

Structure (SMILES)	activity change, negative = inhibition	outcome
COCCn1c(C)cc(O)c(C(c2ccccc2F)N2CCN(c3ccccc3)CC2)c1=O (centres undefined)	inactive: 6.84%	–
COc1ccc(C2=NN(CCC(=O)NCCc3ccccc3)C(=O)CC2)cc1	–	inactive
CCc1cccc(-n2nnc(S(=O)(=O)c3ccc(OC)cc3)c2C)c1	–	inactive
Cc1nc2c(c(C)c1CCC(=O)Nc1ccc(F)cc1)c(=O)n(C)c(=O)n2C	–	inactive
Cc1c(NS(=O)(=O)c2ccc(Cl)cc2)c(=O)n(-c2ccccc2)n1C	inactive: 7.29%	–
CCN(CC)CCCNC(=O)CCc1c(C)nc2c(c1C)c(=O)n(C)c(=O)n2C	–	inactive
Cc1ccc(C)c(NC(=O)c2cnc3sc(N4CCOCC4)nn3c2=O)c1	–	inactive
COc1ccc(-c2cc(C(F)(F)F)nc(SCC(=O)Nc3ccc(O)cc3)n2)cc1OC	–	inactive
CCCN1C(=O)c2oc3cc(C)cc(C)c3c(=O)c2C1c1ccc(F)cc1 (centres undefined)	inactive: -9.11%	–
CCOc1ccc(CNC(=O)c2ccc(NC(=O)N3CCSc4ncccc43)cc2)cc1	–	inactive
Cc1ccc(NC(=O)c2cccc(NC(=O)N3CCSc4ncccc43)c2)cc1F	–	inactive
Cc1cc(=O)c2cc(C(=O)Nc3cccc(C)c3C)ccc2[nH]1	inactive: -1.56%	–
COc1ccc(-c2nc3cc(NC(=O)COc4ccc(C)c(C)c4)ccc3o2)cc1	inactive: 2.15%	–
Cc1cccc(NC(=O)CCn2cnnn2)c1C	–	inactive
CCC(=O)N1c2ccccc2CC1C(=O)NCc1ccccc1Cl (centres undefined)	–	inactive
N#Cc1c(C2CCNCC2)cc(-c2c(O)cccc2OCC2CC2)nc1N	inactive: 14.6%	–
COc1ccc(-c2nc(CSCC(=O)NCCc3ccccc3)c(C)o2)cc1	inactive: -24%	–
COc1cccc(N2CCN(C(=O)c3cc4cc5cc(C)ccc5nc4s3)CC2)c1	–	inactive
COc1cc(OC)c(NC(=O)CCc2c(C)nc3ncnn3c2C)cc1Cl	inactive: 16.6%	–
O=C(NC1(C(F)(F)F)C(=O)Nc2c1c(=O)[nH]c(=O)n2-c1ccc(Cl)cc1)c1ccccc1F (centres undefined)	inactive: -1.42%	–
COc1ccc(Cn2cc(S(=O)(=O)c3ccc(Cl)cc3)c(=O)c3cc4c(cc32)OCO4)cc1	inactive: 17.9%	–
Cc1ccccc1OCCn1c(-c2ccc(Cl)cc2)nc2ccccc2c1=O	inactive: -0.34%	–
Cc1cccc(NC(=O)Cn2cc(C(=O)c3ccco3)c3ccccc32)c1	inactive: -8.63%	–
Cc1ccc(CNC(=O)c2ccc(Cn3c(=O)c4ccccc4n(CC(=O)Nc4ccc(C)cc4)c3=O)cc2)cc1	inactive: 11.5%	–
O=C(Nc1cccc(Cl)c1)c1ccc2c(c1)CCN2S(=O)(=O)c1ccccc1	inactive: 9.35%	–

Structure (SMILES)	activity change, negative = inhibition	outcome
COc1ccc(-c2noc(-c3cccnc3N3CCN(c4ccc(OC)cc4)CC3)n2)cc1	inactive: 6.15%	–
CCCCN(CC)C(=O)CSc1c2c(nc3ccc(Cl)cc13)CCCC2	inactive: -4.06%	–
CCOc1ccc(-n2cc(-c3ccccc3)c3c(N4CCN(c5ccccc5OC)CC4)ncnc32)cc1	–	inactive
O=c1cc(-c2ccc(O)c(O)c2)oc2cc(O)cc(O)c12	inactive: -13%	–
CCOc1ccc(NC(=O)c2sc3nc4c(c(-c5ccc(OC)cc5)c3c2N)C(=O)CC(C)(C)C4)cc1	inactive: 0.159%	–
COC(=O)c1c(NC(=O)/C(C#N)=C/c2ccccc2)sc2c1CCC2	inactive: -0.533%	–
COc1cccc(NC(=O)c2ccc(-c3nc(COc4ccccc4)c(C)o3)cc2)c1	inactive: 1.58%	–
CCOc1ccc(NC(=O)CC2C(=O)N(c3ccc(Cl)cc3)C(=O)N2Cc2cccs2)cc1 (centres undefined)	–	inactive
O=C(OCc1cc(=O)n2nc(C3CCCCC3)sc2n1)c1ccc(F)cc1	inactive: 14.3%	–
Cc1oc(-c2ccc(Cl)cc2)nc1CSc1nc2ncccc2[nH]1	–	inactive
O=C(Nc1ccc2oc(-c3ccncc3)nc2c1)c1ccccc1Cl	inactive: -3.12%	–
CCc1ccccc1Nc1nn2c(=O)c3ccc(C(=O)NCCCOC(C)C)cc3nc2s1	–	inactive
COc1ccccc1Nc1cc(C(=O)NC2CCC(C)CC2)c2ccccc2n1 (centres undefined)	inactive: 7.96%	–
CCOC(=O)c1c(C)[nH]c(C)c1S(=O)(=O)N1CCCC(C(=O)NCc2ccc(Cl)cc2)C1 (centres undefined)	inactive: 24.6%	–
CCOCCCNC(=O)CN1C(=O)COc2ccc(S(=O)(=O)N3CCCC3)cc21	inactive: -2.46%	–
Cc1ccc(N2CC(NC(=O)c3ccc(S(=O)(=O)N4CCOCC4)cc3)CC2=O)cc1 (centres undefined)	inactive: 9.98%	–
CCOC(=O)c1cnn(-c2ccc(C(=O)Nc3cccc(C(C)=O)c3)cc2)c1N	inactive: -11.1%	–
CCn1nc(C)c(CCN(C)C(=O)Nc2cc(OC)c(OC)c(OC)c2)c1C	inactive: 5.73%	–
O=C(CS(=O)Cc1ccco1)NCC=CCOc1cc(CN2CCCCC2)ccn1 (centres undefined)	inactive: 2.89%	–
COc1ccccc1CN1C(=O)CN(C2CCCCCC2)C(=O)C1c1ccc(F)cc1 (centres undefined)	inactive: -35.2%	–
Cc1c(Cl)cccc1NC(=O)C1CCN(c2ncnc3c2nc2n3CCCCC2)CC1	inactive: -6.23%	–
Cc1ccc(CNC(=O)CCn2cnc3ccccc3c2=O)cc1	inactive: -1.13%	–
Cc1ccc2nc(Nc3ccc(C)c(F)c3)c3nncn3c2c1	inactive: -18.3%	–
CCN(C(=O)Nc1cn(CC(C)C)c(=O)c2ccccc12)c1cc(C)ccc1C	inactive: -5.26%	–
